Target: T1, human ICOS (huICOS), on activated human CD4+ T cells (human, UniProt Q9Y6W8 21-199)
T1 sequence: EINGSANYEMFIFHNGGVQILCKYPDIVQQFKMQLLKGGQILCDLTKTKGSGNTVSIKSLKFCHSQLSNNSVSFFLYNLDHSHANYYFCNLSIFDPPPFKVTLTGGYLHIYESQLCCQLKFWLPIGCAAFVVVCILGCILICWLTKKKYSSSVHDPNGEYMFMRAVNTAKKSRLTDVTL
Assay: cell-based or functional assay

B1: ICOS.33 IgG1f S267E (antibody)
heavy: EVQLVESGGGLVKPGGSLRLSCAASGFTFSDYFMHWVRQAPGKGLEWVGVIDTKSFNYATYYSDLVKGRFTISRDDSKNTLYLQMNSLKTEDTAVYYCTATIAVPYYFDYWGQGTLVTVSSASTKGPSVFPLAPSSKSTSGGTAALGCLVKDYFPEPVTVSWNSGALTSGVHTFPAVLQSSGLYSLSSVVTVPSSSLGTQTYICNVNHKPSNTKVDKRV[human IgG1 Fc with changes not shown]
light: DIQMTQSPSSLSASVGDRVTITCQASQDISNYLSWYQQKPGKAPKLLIYYTNLLAEGVPSRFSGSGSGTDFTFTISSLQPEDIATYYCQQYYNYRTFGPGTKVDIKRTVAAPSVFIFPPSDEQLKSGTASVVCLLNNFYPREAKVQWKVDNALQSGNSQESVTEQDSKDSTYSLSSTLTLSKADYEKHKVYACEVTHQGLSSPVTKSFNRGEC
notes: Humanized anti-human ICOS antibody, human IgG1f with S267E (EU numbering); also called ICOS.33-g1f-S267E
EC50 of IFN-γ production, CD25-CD4+ T cell and B cell SEB co-culture (20 donors): 20 pM | fold increase of IFN-γ production, CD25-CD4+ T cell and B cell SEB co-culture: ≤ 2.3 fold
